# Measured values published in the RNAGym collection of RNA variant scans (doi:10.1093/nar/gkz1192).
# Read counts are not given, so values of variants with three or more changes are uncertain.
# B1: CPEB3 Ribozyme (parent)
# chain: UAACAGGGGGCCACAGCAGAAGCGUUCACGUCGCAGCCCCUGUCAGAUUCUGGUGAAUCUGCGAAUUCUGCUGUAUAUCUC
# Variants of: B1
# Experiment: self-cleavage, relative activity (ratio to wild type); higher = more cleavage; in vitro, sequencing
# Outline: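 Relative activity compares each variant's cleaved/total read fraction with that of the unmutated ribozyme. To get these fractions, barcoded CPEB3 ribozyme libraries from rounds of error-prone PCR were transcribed with T7 RNA polymerase for 5 hours at 37°C and then given 15 min of DNase I treatment before EDTA was added. The RNAs were reverse transcribed with template switching and sequenced on Illumina, and DNA sequencing linked barcodes to variants. A minimum of 5 reads applied, and three batches were averaged.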
row,Variant,self-cleavage
1,C14U A21G A56U A64G U78C,0.19
2,A15C C32A U51A,0.04
3,C14U U31C U49C U51A,0.33
4,A13U U26C U78C,0.25
5,A15C A18G A21G G33A U60A U67C U76C,0.1
6,C14U A15U U43C U67C,0.06
7,A15G A20G U26C U51C,0.33
8,A15G A28G U41C U43C U67C U72A,0.1
9,A15C U51A C62U,0.07
10,A15C U31C U41A U54C A57G A64G U72C,0
11,C14U A57G U80A,1.25
12,A13U C27A C34G C40U U60A U78C,0.13
13,A13U U25A U43C,0.28
14,A13U A35G A56C U78C,1.13
15,A15C A21G G33A U76C,0.23
16,C14U A18U A65G U72C,0.25
17,C14U U26A A64G,1.03
18,A13U U48C U49C,0.39
19,A13U U69C U80C,0.55
20,C14U U60A U72A,0.48
21,A13U A56G U67C,0.25
22,C14G A15U C81A,0.49
23,C14A U25C A35C C39A,0.1
24,A13U U31C A47U U67C,0.07

row,Variant,self-cleavage
1,A13U U26C U31C U51C A56G,0.15
2,A15C U41C C68A,0.22
3,A13U C17U A21G C39A U54A,0.07
4,A13U U31C U78C,1.12
5,A13U A56G A57G U74A,0.56
6,A15C A35U U49A U51C C81U,0.34
7,A13U G33C U78A,0.17
8,A15G A35G U43A A65G,0.42
9,A13U A64G U76A,1.19
10,A15G A35G U48C,0.26
11,A13U U54G U60A C62A,0.41
12,A15G A21C U80C,0.13
13,C14U U51A U58C C62G,0.64
14,C14U A15G A35U U43G U48C U51A A64U,0.1
15,A13U U54C G55A U58C,0.12
16,A13U A56G A77G,0.82
17,C14U A28C A64G U72A U76A,0.5
18,A15G A21G U49C,0.11
19,A13U U41C A47G A65G U72A,0.84
20,A13U U31G U41A U58C U78A,0.07
21,A15G A28G U41G A57G,0.04
22,A13U U69A U72A,0.3
23,A15G A28U C40A,0.12
24,A13U U66C C79A,0.53

row,Variant,self-cleavage
1,A13U U25C U31C A45G,0.15
2,A13U A35C A45G U60C,0.77
3,A13U U25A A56U U78C,0.06
4,A15G A18U U72C G73U U78C,0.5
5,C14A A20U G53C U78C,0.23
6,A15G A18U U49A,0.61
7,A15G A35G U54A A57G U60C,0.37
8,A15C A45G G63U U69C U74A,0.22
9,A13U U60C G61U U67C,0.19
10,A15G A18U A77G,0.19
11,A13U C50U C79U,1.2
12,A13U C29U U48C A65G,0.07
13,A13U G16A U31C A35U U72A U74C U80C,0.06
14,A13U C27U A45G A56G,0.06
15,A15G A28G U43G U49A U69G U76C,0.2
16,A13U C14A C23G U41C C68A,0.05
17,A15G A20G U26C U51A C68U,0.33
18,A13U U41A G52C U60A,0.06
19,A15G A18G U25C U31A U48C,0.05
20,A15C C37A C40U U49C U60A,0.25
21,A13U U67G C71U,0.27
22,A15G A20G U26C C44G A64U,0.04
23,A15G A21G G63C U72A,0.09
24,C14U A20G A57G U67C U72C,1.12

row,Variant,self-cleavage
1,C14A C40U U60A U78A,0.13
2,A13U U49A G53C U58A,0.17
3,A13U U31C U41C A45U U54A U80A,0.55
4,A15G A18G U25C U43C U66C,0.34
5,A13U U41C U54G C62U,0.24
6,A13U U54C U60A U78C,0.51
7,A15C U43C U48A,0.21
8,A15G A20G A77C U80C,0.31
9,C14U U25A U54C A56G U60C U76G,0.06
10,A13U U25C U43C A64U U76A,0.09
11,A13U U66C U76A,0.35
12,A13U U48C C68U U69C,0.18
13,A13U U51C U58G U72A U80C,0.52
14,C14U A21U U26C U51C U60A U76A,0.03
15,A13U G24U A28U U51A U60C,0.06
16,A13U U25C G33A,0.14
17,C14A A21U U43A U60C U69C,0.09
18,A13U U26A G30A U54A,0.07
19,A15G A35C A65G U66C,0.14
20,A13U U26A C34G U43C C62A U72A,0.08
21,C14U U26C U54C,0.55
22,A13U A35G U69C,1.19
23,A15G A18G U41C U48C U72A,0.08
24,C14U A28G U48C A64U,0.1

row,Variant,self-cleavage
1,A13U U49A C50U,0.56
2,A15G A28U U49A A56G U58C G61A A77G,0.31
3,A13U A28U U41C U66A U76A,0.37
4,A13U A45G U67A,0.13
5,A13U A45G U76C,1.02
6,A15C U26C U69A G73A,0.13
7,A13U U60C U69G A75G,0.29
8,A13U U41A U69A U78C U80A,0.05
9,A13U U25A G33A C62U U74A,0.09
10,A15C A21G U25A A47U,0.22
11,A13U A45U G61A U66C,0.15
12,A13U U26C C29G C39U U67A U76C,0.16
13,A13U G24A U51C U60C A64G U74C,0.1
14,A15G A28G C32U U58C,0.37
15,C14A G19A A65U U76A,0.03
16,A13U C14U U69C U74A U78C,0.31
17,A15G A21G G70A,0.24
18,A15G A28U U49C A56G U69A,0.08
19,A15G A28G A47U G63A A64G,0.15
20,A13U A56G U60C U76C,0.38
21,A13U G19U A56G A57G,0.09
22,C14U U60A U69C U80C,0.34
23,A13U A35U U60C U78A,0.17
24,A15G A20U U72A,0.16

row,Variant,self-cleavage
1,A15G A21G G22C U26A,0.06
2,A13U U25C A35U C38A A64U U72G U78G,0.13
3,A13U U43C A57G C62A A64G,0.16
4,C14U C40G A65G,0.04
5,C14U A35G U43A,1.25
6,A13U U41A G73A,0.21
7,A13U U26A C32U C44U A65G U69A U80C,0.08
8,C14U U49C A64U U76C,0.11
9,A15G A18U U48C A75U,0.08
10,A13U C40U U78A,0.69
11,A13U U69A A75U,0.64
12,A13U A47G U78A,1.36
13,C14A U54G U60C U72A,0.18
14,A15C A21G A65G A75U,0.06
15,A13U U31A U48A,0.42
16,A15C C68U U74A,0.52
17,A15C A18G U41A,0.27
18,A13U U72G A75G,1.15
19,A15G A21G U31C A45G,0.15
20,C14U A15G A18G A47G U51C U67C,0.22
21,A13U A45G A64G U66C A75G,0.24
22,A15C U26C A64U,0.15
23,A13U U41A U49C A64G U69A,0.05
24,A15G A35U A45G A47U U54A U72C,0.2

row,Variant,self-cleavage
1,A15G A35G U41C U51A,0.33
2,A13U U26A A56G,0.55
3,C14U A20C A28G G33U,0.06
4,A15G A18G U51A A56G U74C,0.11
5,A15C A20U U26A U31C A56G U78C U80C,0.03
6,C14U A15U C17U U67C,0.19
7,A15G A18G G46C A57G U67A,0.21
8,A13U A45U A57G,0.38
9,A13U U51A U69G,0.9
10,C14U A18G A45G G53A,0.7
11,A13U A35U C44G A56G U80C,0.14
12,A15C G19C U43C U58G C79A U80C,0
13,A15C C27U U51C,0.19
14,A15G A18G A28U A35U A45U U60A,0.08
15,A15G A35U A77G,0.37
16,A15C U41A U48C G53A U54C,0.59
17,A13U C29U C38A A45U A56U U78A,0.03
18,A13U A35G U66C,1.34
19,C14U A35G U54C U69C,1.2
20,A13U U26A U43C U69C,0.19
21,A15G A28C U43A U54A U72C,0.6
22,C14U A18U A21G U41C U69C U80A,0.08
23,A13U U41C U78A,1.24
